# The campaign covered roughly 55,000 compounds. About 530 (0.96%) were called active. Inconclusive results, whose numbers are uncertain, are shown with a selection of clear calls. The call rests on the fitted dose curve; in most records, active means well fitted cell-killing curve with a large enough effect; inconclusive means small, poorly fitted or top-dose-only effect; inactive means no such curve, though single readings can be large or run the other way. A potency beside an inconclusive call is a rough fit, not a confirmed value.
# Assay: qHTS Screen for Compounds that Selectively Target Cancer Cells with p53 Mutations: Cytotoxicity of p53 Null Cells at the Nonpermissive Temperature; further: nearly all actives have a fitted effect of over 50% in size;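 on activity, negative = cell killing: 0% = DMSO only and -100% = full killing by 100 µM tamoxifen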
# Conditions: H1299 p53-null (neo) cells, 39C, ATPlite viability, 24 h; activity, negative = cell killing: at 46.1 µM (top of the series)
# How it was run: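 H1299 lung cancer cells, p53-null (H1299-neo) or expressing p53 A138V (H1299-p53A138V), were plated overnight at 37C, then exposed to compounds at up to 46 uM for 24 hr at 39C. Viability was read by ATP-based luminescence.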
# Potency means the concentration at half of the fitted maximal effect; tags describe the fitted curve by direction and shape.
Structure (SMILES),Potency,"activity, negative = cell killing"
COc1ccc(NC(=O)Cn2nnc(C(=O)Nc3ccc(C)c(F)c3)c2N)cc1Cl,"inconclusive: 5.01 µM [cytotoxic, full curve, poor fit]",–
O=C(COc1ccccc1)N(Cc1cccnc1)c1nc2ccc(F)cc2s1,–,inactive: 35.5%
COc1ccc(-c2cc(C(F)(F)F)n3nc(C(=O)NCC45CC6CC(CC(C6)C4)C5)cc3n2)cc1,"inconclusive: 20 µM [cytotoxic, partial curve, poor fit]",–
COc1ccc(NC(=O)COc2ccc(S(=O)(=O)NC3CCCCC3)cc2)cc1OC,"inconclusive: 0.251 µM [cytotoxic, full curve, poor fit]",–
Cc1ccc(CS(=O)(=O)c2ncc(Cl)c(C(=O)Nc3nc4ccc(F)cc4s3)n2)cc1,"inconclusive: 31.6 µM [cytotoxic, single point]",–
Cc1ccc(NC(=O)CCS(=O)(=O)c2cc3c4c(c2)CCN4C(=O)CC3)c(C)c1,"inconclusive: 0.0045 µM [cytotoxic, full curve, poor fit]",–
C=CCn1c(=O)c2ccccc2n2c(SC(C)C(=O)Nc3nc(-c4ccccc4)cs3)nnc12 (stereo not given),–,inactive: 7.44%
Nc1c(C(=O)Nc2ccc(C(=O)O)cc2)sc2nc3c(cc12)CCCC3,"inconclusive: 1.58 µM [cytotoxic, full curve, poor fit]",–
CCOc1ccccc1NS(=O)(=O)c1ccc(-c2cnc(C3CC3)o2)cc1,"inconclusive: 1 µM [cytotoxic, full curve]",–
C=Cc1ccc(Cn2c(C(=O)O)c(CNCc3ccccc3)c3ccc(C)cc32)cc1,"inconclusive: 12.6 µM [cytotoxic, partial curve]",–
CC(=O)Nc1ccc(NC(=O)c2oc3ccc4c(c3c2C)C(=O)CC(C)(C)O4)cc1,active: 3.16 µM,–
Cc1c(CC(=O)NCCc2ccc(Cl)cc2)c(=O)oc2c(C)c3occ(C(C)(C)C)c3cc12,"inconclusive: 0.0501 µM [cytotoxic, full curve, poor fit]",–
CCC(C(=O)Nc1cc(-c2nc3cccnc3s2)ccc1C)c1ccccc1 (stereo not given),"inconclusive: 35.5 µM [cytotoxic, single point]",–
CCOCc1cc(CN2CCN(c3cccc(Cl)c3)CC2)c(O)c2ncccc12,"inconclusive: 0.1 µM [cytotoxic, full curve]",–
CCc1ccc(Nc2nc(N)nc(CSc3nc4ccccc4s3)n2)cc1,"inconclusive: 22.4 µM [cytotoxic, single point]",–
O=C(NCc1cccc(F)c1)c1cccc(NC(=O)c2nsc3ccccc23)c1,"inconclusive: 20 µM [cytotoxic, partial curve, poor fit]",–
CCN1CCN(C(c2cccc(F)c2)c2c(O)cc(C)n(Cc3ccco3)c2=O)CC1 (stereo not given),–,inactive: 9.69%
Cc1nnsc1C(=O)N/N=C/c1ccc2ccccc2c1O,"inconclusive: 1.12 µM [cytotoxic, single point]",–
Cc1cccc(C)c1Nc1c(-c2ccsc2)nc2ccc(Cl)cn12,–,inactive: -5.79%
Cc1cc(N2CCCCC2)nc2ccc(NC(=O)/C=C/c3ccccc3Cl)cc12,–,inactive: 2.96%

Structure (SMILES),Potency,"activity, negative = cell killing"
CCOc1ccccc1CC1C(=O)Nc2ccc(Br)cc21 (stereo not given),"inconclusive: 20 µM [cytotoxic, single point]",–
Cc1ccc(C)c(N2CCN(Cc3csc(C)c3C)CC2)c1,"inconclusive: 1.26 µM [cytotoxic, full curve, poor fit]",–
O=C1C2CC=CCC2C(=O)N1CNc1ccccc1 (stereo not given),"inconclusive: 3.16 µM [cytotoxic, partial curve]",–
Cc1ccc(N(Cc2cccs2)C(=O)c2ccc(Br)o2)cc1,"inconclusive: 35.5 µM [cytotoxic, single point]",–
Cc1ccc(-n2nc(C)c(C(=O)NCCCN3CCN(c4ccc(F)cc4)CC3)c2-n2cccc2)cc1,"inconclusive: 20 µM [cytotoxic, single point]",–
Nc1c(-c2nc(-c3cccs3)no2)nnn1-c1ccccc1Cl,"inconclusive: 12.6 µM [cytotoxic, partial curve]",–
COc1cc(-c2noc(-c3ccc(NCc4ccccc4)c([N+](=O)[O-])c3)n2)cc(OC)c1OC,"inconclusive: 11.2 µM [cytotoxic, single point]",–
CCCCOc1ccc(C(=O)Nc2nnc3n2CCS3)cc1,"inconclusive: 12.6 µM [cytotoxic, partial curve]",–
Cn1c(=O)c(=O)n(C)c2cc(N3CCOCC3)c(NS(=O)(=O)c3ccc(Cl)cc3)cc21,"inconclusive: 1 µM [cytotoxic, full curve, poor fit]",–
Cn1c(SCc2ccc(F)cc2)nc2ccc(C(=O)NCc3ccc(Cl)cc3)cc21,–,inactive: 18.2%
CCOc1ccc(N(C(=O)CC(C)C)S(=O)(=O)c2ccc3c(c2)oc(=O)n3C)cc1,"inconclusive: 12.6 µM [cytotoxic, partial curve, poor fit]",–
Cc1ccc2[nH]c(CSc3nnc(NC(=O)COc4ccccc4)s3)cc(=O)c2c1,–,inactive: 0.716%
CCc1ccc(NC(=O)C2CCN(c3nc(-c4ccc(OC)cc4)no3)CC2)cc1,–,inactive: -13.9%
CCOc1ccc2nc(N3CCN(C(=O)c4ccc5c(c4)CCCC5)CC3)sc2c1,"inconclusive: 0.0501 µM [cytotoxic, full curve, poor fit]",–
Cc1cccc(N2CCN(C(=O)CCc3c(C)nc4c(c3C)c(=O)n(C)c(=O)n4C)CC2)c1C,"inconclusive: 0.005 µM [cytotoxic, full curve, poor fit]",–
COc1ccc(-n2cc(C(=O)OCc3ccc(F)c(F)c3)c3ccccc3c2=O)cc1,–,inactive: 2.31%
CCOC(=O)C1CCCN(C(=O)c2cccc(NC(=O)c3nsc4ccccc34)c2)C1 (stereo not given),"inconclusive: 8.91 µM [cytotoxic, partial curve, poor fit]",–
CCOC(=O)c1cccc(NC(=O)c2cc(CN3CCOCC3)on2)c1,"inconclusive: 31.6 µM [cytotoxic, single point]",–
Cc1cccc(OC(=O)c2cc(-c3ccc4c(c3)OCCO4)on2)c1,active: 25.1 µM,–
N#Cc1nc(-c2ccc(COc3ccccc3)o2)oc1NCc1ccccc1,"inconclusive: 6.31 µM [cytotoxic, partial curve]",–
